Sequences and labels used below:
B1: TPR 5TU (parent)
chain: GGAUCUUCUCGAUCUAACAAAAAAGACAAAUCUGCCACAAAGCUUGAGAGCAUCUUCGGAUGCAGAGGCGGCAGCCUUCGGUGGCGCGAUAGCGCCAACGUUCUCAACUAUGACACGCAAAACGCGUGCUCCGUUGAAUGGAGUUUAUCAUG

Results on 83 variants are retold here after the RNAGym collection of RNA variant scans (doi:10.1073/pnas.2313332121).

Variants at the background level are over-represented here.

The variants in this data set derive from B1. Briefly: polymerase ribozyme fitness, log enrichment relative to wild type (log ratio); higher = more active; in vitro selection for triplet polymerase activity. The method, boiled down: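 Frozen incubation at −7 °C formed the core of a single, triplicate in vitro selection round applied to PCR-built, transcribed mutant libraries of each subunit of a heterodimeric triplet polymerase ribozyme. Extended constructs were gel-excised, captured with streptavidin beads and amplified by RT-PCR, and input and output libraries were Illumina-sequenced with a filter of ≥10 input reads and ≥1 read per output. Fitness is the logarithm of genotype enrichment relative to wild-type enrichment, with inverse-variance-weighted replicate averaging, and the logarithm is base 2.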
With A39G G88C, the “polymerase ribozyme fitness (log ratio)” value was at most -4.2.

A39U U45G U61A A97C C103G A138U: the “polymerase ribozyme fitness (log ratio)” value was at most -4.2.

As to A39U U44A U56C A60C G62U G83A A107U, the “polymerase ribozyme fitness (log ratio)” value is at most -4.2.

Turning to A39C G59A C108U G143U, the “polymerase ribozyme fitness (log ratio)” value is at most -4.2.

As to A39G G58C C85A G88C C118A, the “polymerase ribozyme fitness (log ratio)” value was at most -4.2.

For A40C A60U, the “polymerase ribozyme fitness (log ratio)” value was 0.0412.

On to A39G U101C, for which the “polymerase ribozyme fitness (log ratio)” value was -1.89.

As for A39U U44G U109C, the “polymerase ribozyme fitness (log ratio)” value is at most -4.2.

For the variant A39U U55G G58U U78G C85U U90C C105A G136U A142C, the “polymerase ribozyme fitness (log ratio)” value was at most -4.2.

A39C A40U U61A A64G C79G G83A C95G C103U G133U: the “polymerase ribozyme fitness (log ratio)” value was at most -4.2.

A39G A41U C75G C85G U109A: the “polymerase ribozyme fitness (log ratio)” value is at most -4.2.

Turning to A39U A40U A52C U55C G70C U134G, the “polymerase ribozyme fitness (log ratio)” value was at most -4.2.

As for A39U A73U, the “polymerase ribozyme fitness (log ratio)” value was -4.11.

Turning to A39C A47C G58C C87G U102C C108U G140U A142G, the “polymerase ribozyme fitness (log ratio)” value was at most -4.2.

As to A39C G88U C103A A107U, the “polymerase ribozyme fitness (log ratio)” value was at most -4.2.

For the variant A39G C118U, the “polymerase ribozyme fitness (log ratio)” value was -1.27.

As for A39C G42A C76U, the “polymerase ribozyme fitness (log ratio)” value was at most -4.2.

Take C38U G48U C51U A91U G92U C93U: the “polymerase ribozyme fitness (log ratio)” value is at most -4.2.

In the case of A39C U45G A73C G86A G141U, the “polymerase ribozyme fitness (log ratio)” value was at most -4.2.

With A39C A40G C75A C87U, the “polymerase ribozyme fitness (log ratio)” value was at most -4.2.

Consider C38U G46U G84A U127G G143C, for which the “polymerase ribozyme fitness (log ratio)” value is at most -4.2.

Regarding A39U G80A C123G, the “polymerase ribozyme fitness (log ratio)” value was -2.65.

As for A39U U144C, the “polymerase ribozyme fitness (log ratio)” value is -2.52.

Take A39U A49C G81U G84U C87U A115U: the “polymerase ribozyme fitness (log ratio)” value was at most -4.2.

For A39U U139A, the “polymerase ribozyme fitness (log ratio)” value is -3.87.

A39U A47C U56A A89G C95U A142G: the “polymerase ribozyme fitness (log ratio)” value is at most -4.2.

On to A39U G88C A121G G141C A147U, for which the “polymerase ribozyme fitness (log ratio)” value was at most -4.2.

For the variant A39C U53C G100U, the “polymerase ribozyme fitness (log ratio)” value was at most -4.2.

Regarding A39C C57G A89U A97G, the “polymerase ribozyme fitness (log ratio)” value is -3.41.

C38U G140U: the “polymerase ribozyme fitness (log ratio)” value is -2.77.

For the variant A39G G88A A122U G143U, the “polymerase ribozyme fitness (log ratio)” value is at most -4.2.

With A39G G42A C87U U102A U134G, the “polymerase ribozyme fitness (log ratio)” value was at most -4.2.

Turning to C38U G88C G133U U144A, the “polymerase ribozyme fitness (log ratio)” value was at most -4.2.

For C38U U53A G70A C93U A107G U139C, the “polymerase ribozyme fitness (log ratio)” value was at most -4.2.

As to C38U G88A G92U G140A, the “polymerase ribozyme fitness (log ratio)” value is at most -4.2.

As to A39U G84C, the “polymerase ribozyme fitness (log ratio)” value was -3.33.

Regarding A39U G50C G83U C87A C95G A138G, the “polymerase ribozyme fitness (log ratio)” value is at most -4.2.

A39C A142U: the “polymerase ribozyme fitness (log ratio)” value was -3.34.

With A39G U55G G83C G88C G100C G140U G141A U145G, the “polymerase ribozyme fitness (log ratio)” value is at most -4.2.

In the case of A39C G50A C69G C95U C114A, the “polymerase ribozyme fitness (log ratio)” value was at most -4.2.

With A39C A40G U61A G71A A91C A106G, the “polymerase ribozyme fitness (log ratio)” value was at most -4.2.

For the variant C38U U45A C79G C95A, the “polymerase ribozyme fitness (log ratio)” value is at most -4.2.

On to A39U A40U C54U G84C C85A G92C G128A, for which the “polymerase ribozyme fitness (log ratio)” value is at most -4.2.

Take A39C A49C G83A A98G G126A G143U: the “polymerase ribozyme fitness (log ratio)” value is at most -4.2.

For the variant C38U G92A U127G, the “polymerase ribozyme fitness (log ratio)” value is at most -4.2.

Regarding A39C U55G G81C A121U, the “polymerase ribozyme fitness (log ratio)” value is -2.31.

Turning to A39C C54G G58C G117U G124U U134C, the “polymerase ribozyme fitness (log ratio)” value is at most -4.2.

A39G A41G A73G G86C G92U: the “polymerase ribozyme fitness (log ratio)” value is at most -4.2.

Regarding A39C G46A C54U G83U A89G U104G C114A, the “polymerase ribozyme fitness (log ratio)” value is at most -4.2.

Take C38U U56A G81C U82C G88A C105A C129G: the “polymerase ribozyme fitness (log ratio)” value is at most -4.2.

In the case of A39U C43G U61G G71A C85G C103A A107G, the “polymerase ribozyme fitness (log ratio)” value is at most -4.2.

For the variant A39G U55A G100U G128U A142U, the “polymerase ribozyme fitness (log ratio)” value was at most -4.2.

Consider A39U G80C A91U, for which the “polymerase ribozyme fitness (log ratio)” value is at most -4.2.

As for A39G A40G A41U G58A G59U U61A C79A U144A G152C, the “polymerase ribozyme fitness (log ratio)” value was at most -4.2.

On to A39G C87G U135G G141C, for which the “polymerase ribozyme fitness (log ratio)” value was at most -4.2.

Take A39U C63U C75G C76A C87G C105U C129U G143C: the “polymerase ribozyme fitness (log ratio)” value is at most -4.2.

Turning to A39U C79G C96G A106G A121G U135G U139G, the “polymerase ribozyme fitness (log ratio)” value is at most -4.2.

On to A39C A52U G83U A89C, for which the “polymerase ribozyme fitness (log ratio)” value is at most -4.2.

Consider C38U G126U, for which the “polymerase ribozyme fitness (log ratio)” value is -0.118.

A39C G94A: the “polymerase ribozyme fitness (log ratio)” value was -2.88.

Regarding C38U U53G C96G, the “polymerase ribozyme fitness (log ratio)” value was -1.73.

For C38U C95U U130C U139A U145A, the “polymerase ribozyme fitness (log ratio)” value is at most -4.2.

In the case of A39C C54A G81A, the “polymerase ribozyme fitness (log ratio)” value is -3.05.

C38U U55A A64G C75A: the “polymerase ribozyme fitness (log ratio)” value is at most -4.2.

Regarding A39G U61A G81C U101A A150U, the “polymerase ribozyme fitness (log ratio)” value was at most -4.2.

A39U G50A U56A C76A G86U U90C U134G: the “polymerase ribozyme fitness (log ratio)” value was at most -4.2.

With A39C U44C C93U C108G A121C U139G, the “polymerase ribozyme fitness (log ratio)” value was at most -4.2.

On to C38U G86C C99G U109G C129A U148G, for which the “polymerase ribozyme fitness (log ratio)” value was at most -4.2.

Turning to A40C A41C G50A C79A C87U, the “polymerase ribozyme fitness (log ratio)” value is at most -4.2.

For the variant A39G C57G C105G A147U, the “polymerase ribozyme fitness (log ratio)” value is -3.4.

For A39G G42A U53A U56A G84U C85G U104G, the “polymerase ribozyme fitness (log ratio)” value is at most -4.2.

With A39U A52C U53G G70C C114G C131U G141C, the “polymerase ribozyme fitness (log ratio)” value was at most -4.2.

Consider C38U U90A C96U A107G A137C, for which the “polymerase ribozyme fitness (log ratio)” value was at most -4.2.

Take A39G A40C G80C A91C C103G: the “polymerase ribozyme fitness (log ratio)” value is at most -4.2.

As for A40C A52C U55C G68A C87U C105G A142U G152A, the “polymerase ribozyme fitness (log ratio)” value was at most -4.2.

Consider A39C A49C C96U C125U, for which the “polymerase ribozyme fitness (log ratio)” value was at most -4.2.

A39U A47G G50A A52G U53A C87U G88C C99G U135G: the “polymerase ribozyme fitness (log ratio)” value was at most -4.2.

Take A39C A41C G59A G83U C95A C108U: the “polymerase ribozyme fitness (log ratio)” value was at most -4.2.

A39C G68A A89G G128U A138G: the “polymerase ribozyme fitness (log ratio)” value is at most -4.2.

As for A39U G84A G100U C103G C105G G141C, the “polymerase ribozyme fitness (log ratio)” value was at most -4.2.

Regarding A39U A64G G86C, the “polymerase ribozyme fitness (log ratio)” value is at most -4.2.

A39U U53A U56C A60C U61A G86U A89G: the “polymerase ribozyme fitness (log ratio)” value is -4.17.

As to A39G G70A U77G G141A A142C, the “polymerase ribozyme fitness (log ratio)” value was at most -4.2.
